Patent US7595401B2, “Therapeutic compounds and their use in cancer” (Myriad Pharmaceuticals, Inc., priority 2006, dated 2009)
At least one compound was matched to its structure with a doubt left.

system: purified human Hsp90; assay: Binding Assay: fluorescence polarization with BODIPY-labeled geldanamycin; settings: 5 μM compound, BODIPY-GM 10 nM, Hsp90 30 nM
Method: Compound binding to purified Hsp90 was monitored using BODIPY-labeled geldanamycin (BODIPY-GM) in a fluorescence polarization assay adapted from Kim et al. (Journal of Biomolecular Screening 2004, 9(5):375-381). Compound dilutions (in 100% DMSO) were added to black-bottom 96-well plates (Greiner; 2% DMSO final), and equal volumes of BODIPY-GM (10 nM final) and purified human Hsp90 (Stressgen, SPP-770; 30 nM final) in assay buffer (20 mM HEPES-KOH pH 7.3, 50 mM KCl, 5 mM MgCl2, 20 mM Na2MoO4, 0.01% NP-40, 0.1 mg/mL bovine gamma globulin [Invitrogen, P2045], 2 mM DTT) were added sequentially to yield a final volume of 50 microliters. Plates were incubated overnight at room temperature. Parallel and perpendicular fluorescence measurements were read (LJL BioSystems Analyst AD plate reader) with excitation/emission wavelengths of 485/530 nm. Background fluorescence (buffer only) was subtracted, and fluorescence polarization (FP) values, expressed in mP units, were calculated from parallel and perpendicular fluorescence readings as follows: FP=(parallel−perpendicular)/(parallel+perpendicular)*1000
Percent inhibition was calculated by normalizing the FP values to those obtained in parallel reactions containing DMSO and subtracting these normalized values from 100%. Intrinsic compound fluorescence was independently monitored, and FP data points confounded by compound fluorescence were excluded from the analysis.

Question: With `Nc1ccc(CCn2c(Sc3cc4c(cc3Br)OCO4)nc3c(N)ncnc32)cc1` [Example 213, 9-[2-(4-Amino-phenyl)-ethyl]-8-(6-bromo-benzo[1,3]dioxol-5-ylsulfanyl)-9H-purin-6-ylamine] as the compound, how does the “% Inhibition at 5 μM Compound Concentration” value (“% Inhibition” for short) read?
Answer: 52%

Question: How did the “% Inhibition” value turn out when `COc1ccc(OC)c(Sc2nc3c(N)ncn(CCC4CCCCCC4)c-3n2)c1` [Example 376, 3-(2-Cycloheptylethyl)-8-[(2,5-dimethoxyphenyl)thio]-3H-purin-6-amine] was run?
Answer: 0%

Question: Which “% Inhibition” value does the source give for `CC(C)(C)OC(=O)N1CC[C@@H](CCn2cnc(N)c3nc(Sc4cc5c(cc4Br)OCO5)nc2-3)C1` [Example 461, tert-Butyl (3R)-3-(2-{6-amino-8-[(6-bromo-1,3-benzodioxol-5-yl)thio]-3H-purin-3-yl}ethyl)pyrrolidine-1-carboxylate] here?
Answer: 15%

same assay, conditions: BODIPY-GM 10 nM, Hsp90 30 nM

Question: With `Nc1ccc(CCn2c(Sc3cc4c(cc3Br)OCO4)nc3c(N)ncnc32)cc1` [Example 213, 9-[2-(4-Amino-phenyl)-ethyl]-8-(6-bromo-benzo[1,3]dioxol-5-ylsulfanyl)-9H-purin-6-ylamine] as the compound, how does the IC50 read?
Answer: 310 nM

Question: With `Nc1ncnc2c1nc(Sc1cc3c(cc1Br)OCO3)n2CCc1cc(C(F)(F)F)cc(C(F)(F)F)c1` [Example 220, 9-[2-(3,5-Bistrifluoromethyl-phenyl)-ethyl]-8-(6-bromo-benzo[1,3]dioxol-5-ylsulfanyl)-9H-purin-6-ylamine] as the compound, how does the IC50 read?
Answer: 2000 nM

Question: With `O=c1[nH]cnc2c1nc(Sc1cc3c(cc1Br)OCO3)n2CCc1ccccc1` [Example 225, 8-(6-Bromo-benzo[1,3]dioxol-5-ylsulfanyl)-9-phenethyl-1,9-dihydro-purin-6-one] as the compound, how does the IC50 read?
Answer: > 25000 nM

Question: How did the IC50 turn out when `Nc1nc(F)nc2c1nc(Sc1ccc3c(c1)OCO3)n2CCc1ccccc1Cl` [Example 232, 8-(1,3-Benzodioxol-5-ylthio)-9-[2-(2-chlorophenyl)ethyl]-2-fluoro-9H-purin-6-amine] was run?
Answer: > 25000 nM

Question: Which IC50 does the source give for `COc1cc(Sc2nc3c(N)nc(F)nc3n2CCc2ccccc2Cl)c(Cl)c(OC)c1OC` [Example 238, 9-[2-(2-Chlorophenyl)ethyl]-8-[(2-chloro-3,4,5-trimethoxyphenyl)thio]-2-fluoro-9H-purin-6-amine] here?
Answer: > 25000 nM

Question: How did the IC50 turn out when `COc1ccc(Sc2nc3c(N)ncnc3n2CCc2ccccc2)cc1Cl` [Example 240, 8-[(3-Chloro-4-methoxyphenyl)thio]-9-(2-phenylethyl)-9H-purin-6-amine] was run?
Answer: > 8000 nM

Question: For `Nc1ncnc2c1nc(Sc1cc(Cl)c(Cl)cc1Cl)n2CCc1c(F)cccc1Cl` [Example 263, 9-[2-(2-Chloro-6-fluorophenyl)ethyl]-8-[(2,4,5-trichlorophenyl)thio]-9H-purin-6-amine], which IC50 is on record?
Answer: > 25000 nM

Question: For `COc1ccc(OC)c(Sc2nc3c(N)ncnc3n2CCC2CCCCCC2)c1` [Example 374, 9-(2-Cycloheptylethyl)-8-[(2,5-dimethoxyphenyl)thio]-9H-purin-6-amine], which IC50 is on record?
Answer: > 25000 nM

Question: With `CS(=O)(=O)N1CCC(CCn2c(Sc3ccc4c(c3)OCO4)nc3c(N)ncnc32)CC1` [Example 379, 8-(1,3-Benzodioxol-5-ylthio)-9-{2-[1-(methylsulfonyl)piperidin-4-yl]ethyl}-9H-purin-6-amine] as the compound, how does the IC50 read?
Answer: 9800 nM

Question: How did the IC50 turn out when `Nc1ncnc2c1nc(Sc1cc3c(cc1Br)OCO3)n2CCC1=CCN(Cc2ccccc2)CC1` [Example 424, 9-[2-(1-Benzyl-1,2,3,6-tetrahydropyridin-4-yl)ethyl]-8-[(6-bromo-1,3-benzodioxol-5-yl)thio]-9H-purin-6-amine] was run?
Answer: 152 nM

Question: Which IC50 does the source give for `CC(C)(C)OC(=O)N1CC[C@@H](CCn2c(Sc3cc4c(cc3Br)OCO4)nc3c(N)ncnc32)C1` [Example 460, tert-Butyl (3S)-3-(2-{6-amino-8-[(6-bromo-1,3-benzodioxol-5-yl)thio]-9H-purin-9-yl}ethyl)pyrrolidine-1-carboxylate] here?
Answer: 2800 nM

Question: With `Nc1ncnc2c1nc(Sc1cc3c(cc1Br)OCO3)n2CC[C@H]1CCNC1` [Example 478, 8-[(6-Bromo-1,3-benzodioxol-5-yl)thio]-9-{2-[(3R)-pyrrolidin-3-yl]ethyl}-9 H-purin-6-amine] as the compound, how does the IC50 read?
Answer: 140 nM

Question: How did the IC50 turn out when `Nc1ncnc2c1nc(Sc1cc3c(cc1Br)OCO3)n2CCC1CCCCN1CC(F)(F)F` (stereo not drawn) [Example 564, 8-[(6-Bromo-1,3-benzodioxol-5-yl)thio]-9-{2-[1-(2,2,2-trifluoroethyl)piperidin-2-yl]ethyl}-9 H-purin-6-amine] was run?
Answer: > 2000 nM

Question: For `Nc1ncnc2c1nc(Sc1cc3c(cc1Br)OCO3)n2CCC1CCCN(C(=O)OCc2ccccc2)C1` (stereo not drawn) [Example 597, Benzyl 3-(2-{6-amino-8-[(6-bromo-1,3-benzodioxol-5-yl)thio]-9 H-purin-9-yl}ethyl)piperidine-1-carboxylate], which IC50 is on record?
Answer: 310 nM

Question: `C[C@@H](NC(=O)OC(C)(C)C)C(=O)N1CCC[C@H](CCn2c(Sc3cc4c(cc3Br)OCO4)nc3c(N)ncnc32)C1` [Example 740, tert-Butyl{(1R)-2-[(3R)-3-(2-{6-amino-8-[(6-bromo-1,3-benzodioxol-5-yl)thio]-9H-purin-9-yl}ethyl)piperidin-1-yl]-1-methyl-2-oxoethyl}carbamate] was tested. Which IC50 did it give?
Answer: > 5000 nM
